In the RNAGym collection of RNA variant scans (doi:10.1093/nar/gkz1192):
The source gives no read counts; variants with many changes may rest on few reads.

B1: CPEB3 Ribozyme (parent)
chain: UAACAGGGGGCCACAGCAGAAGCGUUCACGUCGCAGCCCCUGUCAGAUUCUGGUGAAUCUGCGAAUUCUGCUGUAUAUCUC

Variants of: B1
Assay: self-cleavage, relative activity (ratio to wild type); higher = more cleavage; in vitro, sequencing
Method in brief: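 Relative activity was defined as the cleaved/total read fraction for a variant divided by the same fraction for the unmutated ribozyme. CPEB3 self-cleaving ribozyme libraries were made by rounds of error-prone PCR, barcoded, and transcribed in vitro with T7 RNA polymerase for 5 hours at 37°C, and cleavage ran through transcription plus a 15 min DNase I step before EDTA. Illumina sequencing of template-switched reverse transcripts gave the reads, and DNA sequencing mapped the barcodes. Averages come from three batches, using variants with at least 5 reads.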
With A21G U26C U78C the self-cleavage was 0.36.
A21G U26G G63A gave a self-cleavage of 0.07.
A21G U31A A45G U51C U60C gave a self-cleavage of 0.26.
A21G U31A C62U U69A gave a self-cleavage of 0.06.
In the case of A21G U31A G70U, the self-cleavage is reported as 0.37.
Variant A21G U31A U69C has a self-cleavage of 0.14.
With A21G U31A U80A the self-cleavage was 0.32.
In the case of A21G U31C A47G U51C U60A U72C, the self-cleavage is reported as 0.08.
In the case of A21G U31C A65G, the self-cleavage is reported as 0.25.
A21G U31C C37A U74C showed a self-cleavage of 0.08.
Variant A21G U31C C39G U78A has a self-cleavage of 0.03.
Work on A21G U31C G33A U41A yielded a self-cleavage of 0.21.
A21G U31C U49A A77G gave a self-cleavage of 0.07.
With A21G U31C U54C A57G A64U the self-cleavage was 0.02.
Variant A21G U31C U78C has a self-cleavage of 0.23.
With A21G U31G A64G C71U the self-cleavage was 0.15.
With A21G U31G U74C the self-cleavage was 0.61.
For A21G U41A A45U G61A U66A, the self-cleavage was 0.1.
With A21G U41A A57G the self-cleavage was 0.08.
A21G U41A A64U U78A gave a self-cleavage of 0.06.
A21G U41A A65G U69C U72A U78G gave a self-cleavage of 0.11.
Variant A21G U41A U51A U58A has a self-cleavage of 0.15.
With A21G U41A U51A U69C U80C the self-cleavage was 0.18.
For A21G U41A U58C, the self-cleavage was 0.29.
For A21G U41A U69G, the self-cleavage was 0.3.
A21G U41C A65G gave a self-cleavage of 0.47.
Work on A21G U41C U51C yielded a self-cleavage of 0.61.
In the case of A21G U41C U51C C68U A75U, the self-cleavage is reported as 0.28.
In the case of A21G U41C U54G, the self-cleavage is reported as 0.34.
In the case of A21G U41C U60C, the self-cleavage is reported as 0.36.
For A21G U41C U66C, the self-cleavage was 1.04.
For A21G U41G U51C U60C C71A, the self-cleavage was 0.86.
A21G U41G U66C showed a self-cleavage of 0.1.
Variant A21G U43A A64G U80A has a self-cleavage of 0.56.
With A21G U43A G61U U67C U78A the self-cleavage was 0.14.
Work on A21G U43A U67A U69C yielded a self-cleavage of 0.13.
For A21G U43C A45U G46C A57U, the self-cleavage was 0.15.
A21G U43C A45U U58A showed a self-cleavage of 0.14.
A21G U43C A64G showed a self-cleavage of 0.16.
For A21G U43C U49C G52A U54C A75U, the self-cleavage was 0.2.
Variant A21G U43C U54A U60C U72C has a self-cleavage of 0.03.
With A21G U43C U54C U60C U80A the self-cleavage was 0.2.
Variant A21G U43C U66C U72A U78C U80C has a self-cleavage of 0.43.
A21G U43G A75G gave a self-cleavage of 0.12.
For A21G U48C A57G, the self-cleavage was 0.59.
Work on A21G U48C U49C U78A yielded a self-cleavage of 0.35.
A21G U48C U54C gave a self-cleavage of 0.18.
With A21G U48C U60A U80C the self-cleavage was 0.06.
For A21G U48C U69A, the self-cleavage was 0.12.
Work on A21G U48C U72G yielded a self-cleavage of 0.3.
In the case of A21G U49A G53U, the self-cleavage is reported as 0.3.
With A21G U49A U72C C81U the self-cleavage was 0.47.
A21G U49C A57G showed a self-cleavage of 0.12.
Variant A21G U49C A57G U60C A65C has a self-cleavage of 0.08.
For A21G U49C A64C, the self-cleavage was 0.15.
In the case of A21G U49C U54C U69C, the self-cleavage is reported as 0.05.
A21G U49C U69A showed a self-cleavage of 0.15.
A21G U51A A77G U78C showed a self-cleavage of 0.21.
For A21G U51C A57G, the self-cleavage was 0.24.
In the case of A21G U51C U74C, the self-cleavage is reported as 1.08.
Work on A21G U54C A56G U74A yielded a self-cleavage of 0.09.
Work on A21G U54C G63A yielded a self-cleavage of 0.49.
A21G U58C A65G U69C gave a self-cleavage of 0.13.
For A21G U60A U69A, the self-cleavage was 0.11.
In the case of A21G U60C G61A, the self-cleavage is reported as 0.2.
With A21G U67A A75G the self-cleavage was 0.11.
Variant A21G U69C U72A U78C has a self-cleavage of 0.21.
A21G U69C U76C gave a self-cleavage of 0.39.
Variant A21G U72C A77U has a self-cleavage of 0.82.
A21G U76C U78C gave a self-cleavage of 0.56.
With A21U A28G U60C U66A the self-cleavage was 0.12.
A21U A28U U76C gave a self-cleavage of 0.18.
Work on A21U A35G A57U U58C U72C yielded a self-cleavage of 0.27.
For A21U A35G C38U U49C U54C C62U, the self-cleavage was 0.08.
For A21U A35G C79G, the self-cleavage was 1.28.
Variant A21U A35U A45U U66C U80G has a self-cleavage of 0.07.
A21U A45G G53A A64G gave a self-cleavage of 0.07.
With A21U A45G U48C the self-cleavage was 0.04.
Variant A21U A65U U69C has a self-cleavage of 0.12.
Work on A21U A75U U76A U80A yielded a self-cleavage of 0.38.
Variant A21U C29U A56U has a self-cleavage of 0.16.
A21U C29U U43C A47G A64G showed a self-cleavage of 0.26.
Work on A21U C37A G53A U60C yielded a self-cleavage of 0.13.
A21U C37A U60C A64G gave a self-cleavage of 0.06.
A21U G24A C79A gave a self-cleavage of 0.06.
For A21U G24A U41C U48C U51A A64G, the self-cleavage was 0.07.
Variant A21U G33A A45U U54C has a self-cleavage of 0.1.
For A21U G42A U43C U54A A57G, the self-cleavage was 0.55.
With A21U G61A A64G the self-cleavage was 0.09.
A21U U25A C44U C62U A65G showed a self-cleavage of 0.03.
A21U U25A U31A U58C A77C gave a self-cleavage of 0.06.
Variant A21U U25C A45U has a self-cleavage of 0.07.
With A21U U25C C40U A45C C68G U69C the self-cleavage was 0.04.
Work on A21U U25C U43A U72A yielded a self-cleavage of 0.13.
For A21U U25C U58A, the self-cleavage was 0.17.
In the case of A21U U25C U78A U80A, the self-cleavage is reported as 0.1.
With A21U U26A A35C A65G U67C the self-cleavage was 0.32.
A21U U26A C37A U58C G70A U78C showed a self-cleavage of 0.03.
For A21U U26C G61A, the self-cleavage was 0.4.
Variant A21U U26C U31G G33A has a self-cleavage of 0.31.
For A21U U26C U72A G73C, the self-cleavage was 0.06.
Variant A21U U31C U51C U76A has a self-cleavage of 0.14.
A21U U31G U43C A57U C79G gave a self-cleavage of 0.06.
A21U U41A C50G A57G U60A showed a self-cleavage of 0.19.
In the case of A21U U41A U43C A47G U78C, the self-cleavage is reported as 0.18.
With A21U U41A U54G A56G U60G U72C the self-cleavage was 0.06.
Work on A21U U41C A47G yielded a self-cleavage of 0.44.
With A21U U41C A64U U72A the self-cleavage was 0.08.
With A21U U41C U67C the self-cleavage was 0.24.
With A21U U41G A47G A65U U66C U69A the self-cleavage was 0.18.
With A21U U43A U69C the self-cleavage was 0.13.
Work on A21U U43C G53C A77U yielded a self-cleavage of 0.16.
Work on A21U U48C C62A yielded a self-cleavage of 0.16.
With A21U U51C U66C the self-cleavage was 0.45.
For A21U U51G U74C A77G, the self-cleavage was 0.56.
Work on A21U U54A G70A yielded a self-cleavage of 0.44.
A21U U54C A64U U78C gave a self-cleavage of 0.1.
For A21U U54C U60C, the self-cleavage was 0.28.
A21U U69A U80C gave a self-cleavage of 0.17.
A21U U72C C79G gave a self-cleavage of 0.68.
Work on G22A A28G A64G U66A yielded a self-cleavage of 0.05.
Variant G22A A28G U72C has a self-cleavage of 0.48.
For G22A A35G U51C U60C U66C U72C, the self-cleavage was 0.12.
For G22A A35G U74A, the self-cleavage was 0.9.
G22A A57G U60C showed a self-cleavage of 0.12.
Variant G22A U25C A57G has a self-cleavage of 0.16.
Work on G22A U25C U66C yielded a self-cleavage of 0.07.
In the case of G22A U26A A28C, the self-cleavage is reported as 0.14.
For G22A U26C A35G U41A, the self-cleavage was 0.06.
With G22A U26C A57G U67C the self-cleavage was 0.09.
In the case of G22A U31A A35G U41A C62G A64G, the self-cleavage is reported as 0.16.
In the case of G22A U41A A56G A64U U72C, the self-cleavage is reported as 0.05.
With G22A U41A U49A U67A U80C the self-cleavage was 0.06.
Variant G22A U41A U49C U69A G73A has a self-cleavage of 0.06.
Variant G22A U43A U66C has a self-cleavage of 0.27.
In the case of G22A U67C U72A A77G, the self-cleavage is reported as 0.08.
G22A U69A U74C showed a self-cleavage of 0.16.
G22C U41A U60A gave a self-cleavage of 0.2.
With G22C U43A C59U U76C the self-cleavage was 0.08.
In the case of G22C U48C A56G, the self-cleavage is reported as 0.09.
G22C U54C U69C showed a self-cleavage of 0.15.
G22C U66C U80A gave a self-cleavage of 0.13.
In the case of G22U A35G A65G C71G, the self-cleavage is reported as 0.1.
In the case of G22U A45U A47U A56G, the self-cleavage is reported as 0.08.
G22U C40G C62U showed a self-cleavage of 0.13.
G22U U25C U48C showed a self-cleavage of 0.24.
In the case of G22U U26C A64G U78C, the self-cleavage is reported as 0.07.
G22U U26C U31G U54C A56G U69A U76C showed a self-cleavage of 0.04.
In the case of G22U U26C U41A U72C, the self-cleavage is reported as 0.16.
With G22U U26C U72A C79A the self-cleavage was 0.05.
G22U U31C A35U A45G showed a self-cleavage of 0.2.
C23A A28G A35U U43A U67C A77G gave a self-cleavage of 0.07.
C23A A28G U31C A56G C62A U67C showed a self-cleavage of 0.08.
C23A A28G U41A gave a self-cleavage of 0.41.
Work on C23A A28G U49C A57U yielded a self-cleavage of 0.02.
Variant C23A A45U A47U U49C U60C U67A has a self-cleavage of 0.06.
C23A A56G C71A U80C gave a self-cleavage of 0.11.
Variant C23A A57G U67A U72C U80G has a self-cleavage of 0.09.
Work on C23A A64G U67A yielded a self-cleavage of 0.28.
For C23A C34A U41C G42U U60C, the self-cleavage was 0.07.
Variant C23A C38G U41A U51C has a self-cleavage of 0.12.
With C23A C40U U69C U74C the self-cleavage was 0.08.
Variant C23A G36A A56U A65G has a self-cleavage of 0.18.
With C23A U25A C29G A35G U41C U51A A65G the self-cleavage was 0.13.
C23A U25A U60A A64U gave a self-cleavage of 0.13.
C23A U26C C27U U41A A56G showed a self-cleavage of 0.34.
In the case of C23A U26C U31C U48C, the self-cleavage is reported as 0.11.
